Assay results: patent US20250179210A1, “ANTI-CEACAM5 ANTIBODIES AND CONJUGATES AND USES THEREOF” (Merck Patent GmbH, priority 2022, published 2025)

system: MKN45 cells; assay: Internalization assay using Cell Discoverer (pHrodo labeled antibodies); assay type: cell-based, human; conditions: not tested, expected
Text: A relevant characteristic of an ADC is its internalization into a target-expressing cell and lysosomes, and thus internalization is a relevant property of antibodies to be used as part of ADCs. Antibody internalization rate into the late endosome and lysosome (low pH vesicles) can be monitored by directly labeling the antibodies with a pH-sensitive dye (pHrodo) which emits strong fluorescence at a pH lower than 6.0 upon excitation. This fluorescence can be imaged in the Cell-Discoverer7 (Zeiss) and internalization rate can be calculated.
To analyze the internalization rates of several antibodies, MKN45 cells were seeded in a 96 well, dark, flat clear bottom plate (Cellvis) at 25,000 cells/well. Cells were cultivated over night with 100 μl/well of RMPI-1640+10% FBS (Thermo). Cell media was removed, and cells were stained with 100 μl of 10 μg/ml Hoechst dye diluted in PBS×1 for 15 min at room temperature (RT) in the dark. Cells were then washed twice with PBS×1.
Plate was incubated in the Cell Discoverer at 37° C., 5% CO2, for 20 hours, and images were acquired every 20 minutes, as further described below.
Internalization of pHrodo labeled antibodies into the late endosomes and lysosomes of cells was imaged by Cell-Discoverer7 (Zeiss) using fluorescence at excitation of 567 nm and emission detector of 592/25 nm. Cell nuclei were labeled with Hoechst and imaged at excitation of 385 nm and emission detector of 425/30 nm.
Fluorescence of each well was recorded every 20 min for 20 h. Analysis of Sum Fluorescence Intensity per cell (SFI) was calculated by the Zen Software (ZEN3.1) and Excel analysis of linear regression.

Molecule | internalization properties (expected)
mAb1-M: anti-CEACAM5 mAb, LALA and YTE mutation; HC SEQ ID NO: 34, LC SEQ ID NO: 14 (antibody) heavy: EVQLQESGPGLVKPSQTLSLTCTVSDGSVSRGGYYLTWIRQHPGKGLEWIGYIYYSGSTYFNPSLRSRVTMSVDTSKNQFSLKLSSVTAADTAVYYCARGIAVAPFDYWGQGTLVTVSSASTKGPSVFPLAPSSKSTSGGTAALGCLVKDYFPEPVTVSWNSGALTSGVHTFPAVLQSSGLYSLSSVVTVPSSSLGTQTYICNVNHKPSNTKVDKRVEPKSCDKTHTCPPCPAPEAAGGPSVFLFPPKPKDTLYITREPEVTCVVVDVSHEDPEVKFNWYVDGVEVHNAKTKPREEQYNSTYRVVSVLTVLHQDWLNGKEYKCKVSNKALPAPIEKTISKAKGQPREPQVYTLPPSREEMTKNQVSLTCLVKGFYPSDIAVEWESNGQPENNYKTTPPVLDSDGSFFLYSKLTVDKSRWQQGNVFSCSVMHEALHNHYTQKSLSLSPG light: EIVLTQSPATLSVSPGERATLSCRTSQSVRSNLAWYQQKPGQAPRLLIYAASTRATGIPARFSGSGSGTEFTLTISSLQSEDFAVYYCQQYTNWPFTFGPGTKVDIKRTVAAPSVFIFPPSDEQLKSGTASVVCLLNNFYPREAKVQWKVDNALQSGNSQESVTEQDSKDSTYSLSSTLTLSKADYEKHKVYACEVTHQGLSSPVTKSFNRGEC | expected to show internalization properties corresponding to mAb1
mAb2-M: anti-CEACAM5 mAb, LALA, YTE, MTG Tag; HC SEQ ID NO: 34, LC SEQ ID NO: 36 (antibody) heavy: EVQLQESGPGLVKPSQTLSLTCTVSDGSVSRGGYYLTWIRQHPGKGLEWIGYIYYSGSTYFNPSLRSRVTMSVDTSKNQFSLKLSSVTAADTAVYYCARGIAVAPFDYWGQGTLVTVSSASTKGPSVFPLAPSSKSTSGGTAALGCLVKDYFPEPVTVSWNSGALTSGVHTFPAVLQSSGLYSLSSVVTVPSSSLGTQTYICNVNHKPSNTKVDKRVEPKSCDKTHTCPPCPAPEAAGGPSVFLFPPKPKDTLYITREPEVTCVVVDVSHEDPEVKFNWYVDGVEVHNAKTKPREEQYNSTYRVVSVLTVLHQDWLNGKEYKCKVSNKALPAPIEKTISKAKGQPREPQVYTLPPSREEMTKNQVSLTCLVKGFYPSDIAVEWESNGQPENNYKTTPPVLDSDGSFFLYSKLTVDKSRWQQGNVFSCSVMHEALHNHYTQKSLSLSPG light: EIVLTQSPATLSVSPGERATLSCRTSQSVRSNLAWYQQKPGQAPRLLIYAASTRATGIPARFSGSGSGTEFTLTISSLQSEDFAVYYCQQYTNWPFTFGPGTKVDIKRTVAAPSVFIFPPSDEQLKSGTASVVCLLNNFYPREAKVQWKVDNALQSGNSQESVTEQDSKDSTYSLSSTLTLSKADYEKHKVYACEVTHQGLSSPVTKSFNRGECGGTLQSPP | expected to show internalization properties corresponding to mAb1
mAb3-M: anti-CEACAM5 mAb, LALA, YTE, K222R, MTG Tag; HC SEQ ID NO: 35, LC SEQ ID NO: 36 (antibody) heavy: EVQLQESGPGLVKPSQTLSLTCTVSDGSVSRGGYYLTWIRQHPGKGLEWIGYIYYSGSTYFNPSLRSRVTMSVDTSKNQFSLKLSSVTAADTAVYYCARGIAVAPFDYWGQGTLVTVSSASTKGPSVFPLAPSSKSTSGGTAALGCLVKDYFPEPVTVSWNSGALTSGVHTFPAVLQSSGLYSLSSVVTVPSSSLGTQTYICNVNHKPSNTKVDKRVEPKSCDRTHTCPPCPAPEAAGGPSVFLFPPKPKDTLYITREPEVTCVVVDVSHEDPEVKFNWYVDGVEVHNAKTKPREEQYNSTYRVVSVLTVLHQDWLNGKEYKCKVSNKALPAPIEKTISKAKGQPREPQVYTLPPSREEMTKNQVSLTCLVKGFYPSDIAVEWESNGQPENNYKTTPPVLDSDGSFFLYSKLTVDKSRWQQGNVFSCSVMHEALHNHYTQKSLSLSPG light: EIVLTQSPATLSVSPGERATLSCRTSQSVRSNLAWYQQKPGQAPRLLIYAASTRATGIPARFSGSGSGTEFTLTISSLQSEDFAVYYCQQYTNWPFTFGPGTKVDIKRTVAAPSVFIFPPSDEQLKSGTASVVCLLNNFYPREAKVQWKVDNALQSGNSQESVTEQDSKDSTYSLSSTLTLSKADYEKHKVYACEVTHQGLSSPVTKSFNRGECGGTLQSPP | expected to show internalization properties corresponding to mAb1
mAb6-M: anti-CEACAM5 mAb, LALA mutation; HC SEQ ID NO: 51, LC SEQ ID NO: 14 (antibody) heavy: EVQLQESGPGLVKPSQTLSLTCTVSDGSVSRGGYYLTWIRQHPGKGLEWIGYIYYSGSTYFNPSLRSRVTMSVDTSKNQFSLKLSSVTAADTAVYYCARGIAVAPFDYWGQGTLVTVSSASTKGPSVFPLAPSSKSTSGGTAALGCLVKDYFPEPVTVSWNSGALTSGVHTFPAVLQSSGLYSLSSVVTVPSSSLGTQTYICNVNHKPSNTKVDKRV[letters of human IgG1 Fc with changes left out] light: EIVLTQSPATLSVSPGERATLSCRTSQSVRSNLAWYQQKPGQAPRLLIYAASTRATGIPARFSGSGSGTEFTLTISSLQSEDFAVYYCQQYTNWPFTFGPGTKVDIKRTVAAPSVFIFPPSDEQLKSGTASVVCLLNNFYPREAKVQWKVDNALQSGNSQESVTEQDSKDSTYSLSSTLTLSKADYEKHKVYACEVTHQGLSSPVTKSFNRGEC | expected to show internalization properties corresponding to mAb1
mAb7-M: anti-CEACAM5 mAb, LALA mutation, MTG Tag; HC SEQ ID NO: 51, LC SEQ ID NO: 36 (antibody) heavy: EVQLQESGPGLVKPSQTLSLTCTVSDGSVSRGGYYLTWIRQHPGKGLEWIGYIYYSGSTYFNPSLRSRVTMSVDTSKNQFSLKLSSVTAADTAVYYCARGIAVAPFDYWGQGTLVTVSSASTKGPSVFPLAPSSKSTSGGTAALGCLVKDYFPEPVTVSWNSGALTSGVHTFPAVLQSSGLYSLSSVVTVPSSSLGTQTYICNVNHKPSNTKVDKRV[letters of human IgG1 Fc with changes left out] light: EIVLTQSPATLSVSPGERATLSCRTSQSVRSNLAWYQQKPGQAPRLLIYAASTRATGIPARFSGSGSGTEFTLTISSLQSEDFAVYYCQQYTNWPFTFGPGTKVDIKRTVAAPSVFIFPPSDEQLKSGTASVVCLLNNFYPREAKVQWKVDNALQSGNSQESVTEQDSKDSTYSLSSTLTLSKADYEKHKVYACEVTHQGLSSPVTKSFNRGECGGTLQSPP | expected to show internalization properties corresponding to mAb1
